According to the antibiotic and cytotoxicity screens of Wong et al. (2023):
Some of the results follow.

tested on: HSkMC (human skeletal muscle cells); assay: cytotoxicity call (relative viability < 0.9); details: 10 µM

SMILES	cytotoxicity call
Cc1noc(C)c1S(=O)(=O)Nc1cccc2c1O[C@@H](CN(C)CC1CC1)[C@@H](C)CN([C@H](C)CO)C2=O	inactive
C[C@@H]1CCCCO[C@@H](CN(C)C(=O)Nc2ccccc2)[C@@H](C)CN([C@H](C)CO)C(=O)c2cc(NC(=O)c3ccncc3)ccc2O1	inactive
COCC#Cc1ccc2c(c1)O[C@H](CN(C)S(=O)(=O)c1ccc(C)cc1)[C@@H](C)CN([C@@H](C)CO)S2(=O)=O	inactive
COc1ccccc1C#Cc1ccc2c(c1)O[C@@H](CN(C)Cc1ccncc1)[C@@H](C)CN([C@H](C)CO)S2(=O)=O	inactive
CCCCCCc1nc(-c2ccc(-c3ccc(Cl)c(Cl)c3)o2)cc2c1[Si](C(C)C)(C(C)C)O[C@H]2c1ccccc1	inactive
Cc1ccc(S(=O)(=O)Nc2ccc3c(c2)CC(=O)N([C@@H](C)CO)C[C@@H](C)[C@@H](CN(C)Cc2ccc(Oc4ccccc4)cc2)O3)cc1	inactive
COCC#Cc1ccc2c(c1)O[C@@H](CN(C)Cc1ccc(F)cc1)[C@@H](C)CN([C@@H](C)CO)S2(=O)=O	inactive
O=C(C[C@@H]1CC[C@H]2[C@@H](COC[C@@H](O)CN2S(=O)(=O)c2ccc(F)cc2)O1)NCCN1CCCCC1	inactive
CCCNC(=O)c1cc2c(c(-c3cccc(-c4cccc(OC)c4)c3)n1)[C@@H](CCO)N([S@](=O)C(C)(C)C)C2	inactive
C[C@H]1CN([C@@H](C)CO)C(=O)c2cc(NC(=O)CCN3CCOCC3)ccc2O[C@H]1CN(C)S(=O)(=O)c1ccc(Cl)cc1	inactive
C[C@@H]1CN([C@@H](C)CO)C(=O)c2ccccc2-c2ccccc2CO[C@@H]1CN(C)Cc1ccccc1C(F)(F)F	inactive
C[C@@H]1CN([C@H](C)CO)C(=O)c2cc(C#CC3CCCC3)cnc2O[C@@H]1CN(C)C(=O)Cc1ccccn1	inactive
C[C@H]1CN([C@@H](C)CO)S(=O)(=O)c2ccc(C#CC3CCCC3)cc2O[C@@H]1CN(C)C(=O)Cc1ccncc1	inactive
CCCNC(=O)N1C[C@@H](O)COC[C@@H]2O[C@H](CC(=O)N3CCN(C)CC3)CC[C@H]21	inactive
C[C@H](CO)N1C[C@H](C)[C@@H](CN(C)C(=O)Nc2ccc(N3CCCCC3)cc2)OCc2cn(nn2)CCCC1=O	inactive
C[C@H](CO)N1C[C@H](C)[C@@H](CN(C)S(C)(=O)=O)Oc2ccc(NC(=O)Cn3cnnn3)cc2CC1=O	inactive
CC(C)NC(=O)Nc1ccc2c(c1)C(=O)N([C@@H](C)CO)C[C@@H](C)[C@H](CN(C)Cc1ccc(Cl)c(Cl)c1)OCCCC[C@H](C)O2	inactive
CC(C)N1C(=O)CNC1=S	inactive
COc1ccc(C#Cc2cnc3c(c2)C(=O)N([C@H](C)CO)C[C@H](C)[C@H](CN(C)C(=O)NC(C)C)O3)cc1OC	inactive
CCn1nnc2c(SCC(N)=O)ncnc21	inactive

SMILES	cytotoxicity call
O=C(O)[C@H](O)[C@@](O)(Cc1ccc(O)cc1)C(=O)O	inactive
COc1ccc(NC(=O)Nc2ccc3c(c2)CC(=O)N([C@H](C)CO)C[C@H](C)[C@@H](CN(C)Cc2ccc(C(=O)Nc4ccccc4N)cc2)O3)cc1	inactive
C[C@@H]1CCCCO[C@@H](CN(C)S(=O)(=O)c2ccc(Cl)cc2)[C@@H](C)CN([C@@H](C)CO)C(=O)c2cc(NC(=O)c3ccccc3)ccc2O1	inactive
C[C@H]1CCCCO[C@H](CN(C)S(=O)(=O)c2ccccc2)[C@@H](C)CN([C@@H](C)CO)C(=O)c2cc(NC(=O)Nc3ccc(C(F)(F)F)cc3)ccc2O1	inactive
C[C@H](CO)N1C[C@H](C)[C@H](CN(C)C(=O)Nc2ccc(C(F)(F)F)cc2)Oc2c(NC(=O)c3nc4ccccc4s3)cccc2C1=O	inactive
COc1ccc(S(=O)(=O)N(C)C[C@H]2OCCCC[C@H](C)Oc3ccc(NC(=O)Nc4ccc5c(c4)OCO5)cc3C(=O)N([C@H](C)CO)C[C@@H]2C)cc1	inactive
COc1ccc(NC(=O)N(C)C[C@H]2Oc3c(NS(C)(=O)=O)cccc3C(=O)N([C@@H](C)CO)C[C@@H]2C)cc1	inactive
O=C(C[C@H]1C[C@@H]2c3cc(NC(=O)Nc4ccc(C(F)(F)F)cc4)ccc3O[C@@H]2[C@H](CO)O1)NCc1cc(F)ccc1F	inactive
C[C@@H]1CN([C@@H](C)CO)C(=O)c2cc(NC(=O)Nc3ccccc3)ccc2O[C@@H](C)CCCCO[C@H]1CN(C)S(=O)(=O)c1cccc(F)c1	inactive
Cn1c(=O)n2n(c1=O)[C@H](C1CC1)C=C1CN3[C@@H]([C@H](CCn4cc(-c5ccc(C(=O)NO)cc5)nn4)OC(=O)[C@@H]3Cc3ccccc3)[C@@H]12	inactive
Cn1c(=O)c2c(NCCO)ccnc2n(C)c1=O	inactive
C[C@H](CO)N1C[C@H](C)[C@@H](CN(C)S(=O)(=O)c2ccc(F)cc2)OCCCC[C@H](C)Oc2ccc(NC(=O)Nc3ccc(F)cc3)cc2C1=O	inactive
C[C@@H]1CN([C@@H](C)CO)C(=O)Cc2cc(NS(=O)(=O)c3ccccc3)ccc2O[C@@H]1CN(C)Cc1ccc(C(=O)O)cc1	inactive
Cc1ccc(S(=O)(=O)NC(=O)NN2CC3CCCC3C2)cc1 (stereo not given)	inactive
C[C@@H]1CN([C@@H](C)CO)C(=O)c2cc(NC(=O)Nc3ccccc3)ccc2O[C@H]1CN(C)C(=O)Nc1ccc(C(F)(F)F)cc1	inactive
COc1ccc(S(=O)(=O)N(C)C[C@H]2OCCCC[C@H](C)Oc3ccc(NC(=O)C4CCCCC4)cc3C(=O)N([C@@H](C)CO)C[C@H]2C)cc1	inactive
C[C@@H]1CCCCO[C@H](CN(C)S(=O)(=O)c2cn(C)cn2)[C@@H](C)CN([C@@H](C)CO)C(=O)c2cc(NS(C)(=O)=O)ccc2O1	inactive
Cc1noc(C)c1NC(=O)Nc1ccc2c(c1)C(=O)N([C@@H](C)CO)C[C@@H](C)[C@@H](CN(C)Cc1ccc(C(=O)Nc3ccccc3N)cc1)O2	inactive
CCCNc1nc(=O)c(C)n[nH]1	inactive
Nc1nncn1C(=O)c1ccccc1F	inactive
